The values that follow come from the supplement of paper PMC9446081.

SMILES strings stand for the structures. Among all 39,000 compounds or so, about 220 (0.56%) showed activity. This is one part of the list.
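Further: static incubation at 37 °C against the wild-type strain, values averaged over two biological replicates.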

This assay relates to Escherichia coli K-12 BW25113. Kind of assay: relative growth (OD600 normalised to plate interquartile mean) (fraction); higher = less growth inhibition, active = 0.2 or less. The settings on record: 50 µM; LB; incubation time: overnight (16-24 h).
As for `C[C@@H]1CN([C@H](C)CO)C(=O)c2cc(NC(=O)Cc3cn(C)c4ccccc34)ccc2O[C@H]1CN(C)Cc1ccc(Cl)c(Cl)c1`, the relative growth was inactive: 1.02.
On to `O=C(C[C@@H]1C[C@H]2c3cc(NS(=O)(=O)c4ccc(F)cc4)ccc3O[C@H]2[C@H](CO)O1)NCCc1ccccc1`, for which the relative growth is inactive: 1.
As for `C[C@@H]1CN([C@H](C)CO)S(=O)(=O)c2ccc(C#Cc3ccccc3)cc2O[C@@H]1CN(C)C(=O)c1ccccn1`, the relative growth was inactive: 1.02.
On to `COc1ccc(NC(=O)Nc2ccc3c(c2)C(=O)N([C@@H](C)CO)C[C@H](C)[C@@H](CN(C)C(=O)C2CCCCC2)OCCCC[C@H](C)O3)cc1`, for which the relative growth was inactive: 1.03.
For the compound `COC(=O)[C@H](Cc1ccccc1)N1CC2=C[C@@H](C3CC3)n3c(=O)n(C)c(=O)n3[C@H]2[C@@H]1[C@@H](O)CCn1cc(-c2ccc(C(=O)NO)s2)nn1`, the relative growth was inactive: 0.973.
The value for `COc1ccc(S(=O)(=O)N(C)C[C@H]2Oc3ccc(NC(=O)Nc4cccc5ccccc45)cc3C(=O)N([C@H](C)CO)C[C@H]2C)cc1` was inactive: 1.01; that for `COCC(=O)N1C[C@@H](C)[C@@H](OC)CN(C)C(=O)c2cc(NC(=O)c3ccc(OC)cc3)ccc2OC[C@H]1C` was inactive: 0.979.
Take `CN1C(=O)c2cc(NC(=O)c3cnccn3)ccc2OC[C@H]2O[C@@H](CC(=O)N[C@@H]3CCN(Cc4ccccc4)C3)CC[C@H]21`: the relative growth was inactive: 1.
As for `C[C@@H]1CCCCO[C@@H](CN(C)C(=O)Nc2ccc(F)cc2)[C@H](C)CN([C@@H](C)CO)C(=O)c2cc(NC(=O)Cc3ccccc3)ccc2O1`, the relative growth was inactive: 1.03.
As to `O=C(C[C@@H]1CC[C@@H]2[C@H](COC[C@@H](O)CN2S(=O)(=O)c2ccc(Cl)cc2)O1)NCC1CCCCC1`, the relative growth was inactive: 0.976.
In the case of `C[C@@H]1CN([C@H](C)CO)C(=O)c2cc(NC(=O)Cc3cn(C)c4ccccc34)ccc2O[C@H]1CN(C)CC1CCCCC1`, the relative growth is inactive: 0.983.
With `C[C@@H]1CN([C@@H](C)CO)S(=O)(=O)c2ccc(-c3cccc(C#N)c3)cc2O[C@H]1CN(C)C(=O)c1ccncc1`, the relative growth was inactive: 0.949.
In the case of `C[C@@H]1CN([C@H](C)CO)C(=O)c2cc(NC(=O)Cc3ccccc3)ccc2O[C@H]1CN(C)Cc1ccc(C(=O)Nc2ccccc2N)cc1`, the relative growth is inactive: 1.01.
For the compound `COCCNC(=O)C[C@H]1CC[C@@H]2[C@H](COC[C@H](O)CN2C(=O)Nc2ccccc2OC)O1`, the relative growth was inactive: 1.
As to `C[C@H](CO)N1C[C@H](C)[C@@H](CN(C)S(=O)(=O)c2cccs2)Oc2c(NS(=O)(=O)c3ccc(F)cc3)cccc2C1=O`, the relative growth is inactive: 1.01.
`C[C@H](CO)N1C[C@H](C)[C@H](CN(C)C(=O)C2CCOCC2)Oc2ncc(C#Cc3cccc(F)c3)cc2C1=O`: the relative growth is inactive: 1.01.
As to `O=C(Cc1ccncc1)NCC[C@H]1CC[C@@H](NC(=O)C2CCOCC2)[C@@H](CO)O1`, the relative growth is inactive: 1.01.
For `C[C@H]1CN([C@@H](C)CO)C(=O)Cc2cc(NS(=O)(=O)c3ccccc3)ccc2O[C@@H]1CN(C)S(=O)(=O)c1ccccc1`, the relative growth was inactive: 0.983.
The value for `C[C@H](CO)N1C[C@H](C)[C@H](CN(C)S(C)(=O)=O)Oc2cc(-c3ccccc3F)ccc2S1(=O)=O` was inactive: 0.986; that for `COc1ccc(NC(=O)N(C)C[C@H]2Oc3c(NC(=O)c4ccc(-c5nccs5)cc4)cccc3C(=O)N([C@H](C)CO)C[C@H]2C)cc1` was inactive: 0.988.
As to `COc1ccccc1CNC(=O)C[C@H]1C[C@@H]2c3cc(NC(=O)c4cccnc4)ccc3O[C@@H]2[C@H](CO)O1`, the relative growth is inactive: 1.02.
Take `C[C@H]1CN([C@@H](C)CO)C(=O)Cc2cc(NC(=O)Nc3ccc4c(c3)OCO4)ccc2O[C@H]1CN(C)Cc1ccc(Cl)c(Cl)c1`: the relative growth is inactive: 0.985.
As to `Cc1ncc(CO)c(CO)c1O.Cl`, the relative growth was inactive: 1.05.
As to `Cc1ccc(S(=O)(=O)Nc2cccc3c2O[C@@H](CN(C)S(=O)(=O)c2ccc(F)cc2)[C@H](C)CN([C@@H](C)CO)C3=O)cc1`, the relative growth was inactive: 0.99.
The value for `COc1cccc(S(=O)(=O)N(C)C[C@@H]2Oc3ncc(-c4cccc(C(=O)N(C)C)c4)cc3C(=O)N([C@H](C)CO)C[C@H]2C)c1` was inactive: 1.04; that for `C[C@H]1CCCCO[C@H](CN(C)C(=O)Nc2cccc3ccccc23)[C@@H](C)CN([C@@H](C)CO)C(=O)c2cc(NC(=O)CCC(F)(F)F)ccc2O1` was inactive: 0.983; that for `Cc1cc(C(=O)Nc2cccc3c2O[C@@H](CN(C)S(C)(=O)=O)[C@H](C)CN([C@@H](C)CO)C3=O)n(C)n1` was inactive: 1.01.
On to `C[C@@H]1CN([C@H](C)CO)C(=O)c2cc(NS(=O)(=O)c3ccc(Cl)cc3)ccc2O[C@@H](C)CCCCO[C@H]1CN(C)Cc1ccccc1`, for which the relative growth is inactive: 0.965.
For the compound `C[C@@H]1CCCCO[C@@H](CN(C)Cc2ccc(C(F)(F)F)cc2)[C@@H](C)CN([C@H](C)CO)C(=O)c2cc(NS(=O)(=O)c3cn(C)cn3)ccc2O1`, the relative growth was inactive: 1.02.
The value for `Cc1ccc(S(=O)(=O)Nc2ccc3c(c2)C(=O)N([C@H](C)CO)C[C@@H](C)[C@H](CN(C)Cc2ccncc2)OCCCC[C@@H](C)O3)cc1` was inactive: 1.01.
As for `CCCC#Cc1ccc2c(c1)O[C@H](CN(C)S(=O)(=O)c1cccc(OC)c1)[C@H](C)CN([C@H](C)CO)S2(=O)=O`, the relative growth was inactive: 1.01.
As for `COC(=O)C1=C(C)NC(C)=C(C(=O)OC(C)(C)CN(C)CCC(c2ccccc2)c2ccccc2)[C@@H]1c1cccc([N+](=O)[O-])c1`, the relative growth was inactive: 1.02.
`NCCC(O)(P(=O)(O)O)P(=O)(O)O`: the relative growth was inactive: 1.01.
With `C[C@@H]1CN([C@H](C)CO)C(=O)c2cccc(NS(=O)(=O)c3ccc(F)cc3)c2O[C@@H]1CN(C)Cc1ccc(-c2ccccc2)cc1`, the relative growth was inactive: 1.01.
The value for `C[C@@H]1CN([C@@H](C)CO)C(=O)Cc2cc(NC(=O)Cc3ccccc3)ccc2O[C@@H]1CN(C)S(C)(=O)=O` was inactive: 1.02; that for `CN(C)CC(=O)N1[C@@H]2c3cccc(=O)n3C[C@H]1[C@H](CO)[C@H]2C(=O)NCc1ccccc1` was inactive: 0.983; that for `Cc1noc(C)c1S(=O)(=O)N(C)C[C@H]1OCCCC[C@@H](C)Oc2ccc(NC(=O)Nc3cccc4ccccc34)cc2C(=O)N([C@@H](C)CO)C[C@H]1C` was inactive: 1.02.
On to `Cn1cnc(S(=O)(=O)N[C@@H]2CC[C@@H](CC(=O)NCC3CC3)O[C@@H]2CO)c1`, for which the relative growth is inactive: 0.958.
As for `C[C@@H]1CN([C@@H](C)CO)S(=O)(=O)c2ccc(Br)cc2O[C@H]1CN(C)C(=O)c1ccncc1`, the figure is inactive: 0.958; as for `C[C@@H]1CCCCO[C@@H](CN(C)CC2CCCCC2)[C@@H](C)CN([C@H](C)CO)C(=O)c2cc(NC(=O)Nc3ccc4c(c3)OCO4)ccc2O1`, inactive: 1.01; as for `COc1ccc(NC(=O)Nc2ccc3c(c2)C(=O)N([C@@H](C)CO)C[C@H](C)[C@H](CN(C)Cc2ccc(C(=O)O)cc2)OCCCC[C@@H](C)O3)cc1`, inactive: 0.984.
As for `NC(=O)NCC#Cc1ccc2c(c1)[C@]1(C(=O)N2)[C@H](C(=O)N2CCCCCCC2)[C@H]2C(=O)O[C@H](c3ccccc3)[C@H](c3ccccc3)N2[C@@H]1c1ccccc1OCCO`, the relative growth is inactive: 1.04.
As for `Cc1onc(C(=O)N2CCOCC2)c1[N+](=O)[O-]`, the relative growth was inactive: 1.01.
On to `O=C(N[C@H](c1ccc(F)cc1)c1ccc2ccccc2n1)C1CCN(Cc2ccc(Oc3ccccc3)cc2)CC1`, for which the relative growth is inactive: 1.03.
Turning to `C[C@H]1CN([C@@H](C)CO)C(=O)c2cc(NC(=O)CCN3CCOCC3)ccc2O[C@H]1CN(C)C(=O)Nc1ccccc1`, the relative growth was inactive: 0.992.
For `COc1ccc(NC(=O)N(C)C[C@H]2OCCCC[C@@H](C)Oc3ccc(NC(=O)C4CCCCC4)cc3C(=O)N([C@@H](C)CO)C[C@H]2C)cc1`, the relative growth is inactive: 0.995.
As for `C[C@@H]1CCCCO[C@@H](CN(C)C(=O)Nc2ccc(F)cc2)[C@H](C)CN([C@@H](C)CO)C(=O)c2cc(NC(=O)CCC(F)(F)F)ccc2O1`, the figure is inactive: 0.986; as for `COc1ccc(S(=O)(=O)N(C)C[C@H]2Oc3ccc(NS(=O)(=O)c4ccc(C)cc4)cc3C(=O)N([C@@H](C)CO)C[C@@H]2C)cc1`, inactive: 1.04; as for `Cc1noc(C)c1S(=O)(=O)Nc1ccc2c(c1)C(=O)N([C@@H](C)CO)C[C@H](C)[C@H](CN(C)CC1CCCCC1)OCCCC[C@@H](C)O2`, inactive: 0.982.
The value for `O=C(C[C@H]1C=C[C@H](NC(=O)Nc2ccc3c(c2)OCO3)[C@@H](CO)O1)NCCCN1CCOCC1` was inactive: 0.996; that for `Cc1ccc(S(=O)(=O)N(C)C[C@H]2OCCCC[C@@H](C)Oc3ccc(NC(=O)Nc4ccc5c(c4)OCO5)cc3C(=O)N([C@@H](C)CO)C[C@@H]2C)cc1` was inactive: 1.06; that for `COc1cc(OC)cc(C(=O)OCCCN2CCN(CCCOC(=O)c3cc(OC)cc(OC)c3)CC2)c1` was inactive: 1.03.
As for `COc1ccc(C#Cc2ccc([C@H]3[C@@H](CO)N4CCCCN(S(=O)(=O)c5cn(C)cn5)C[C@H]34)cc2)cc1`, the relative growth is inactive: 0.961.
With `COc1ccc(-c2cc(=O)c3c(O)c(OC)c(OC)c(OC)c3o2)cc1OC`, the relative growth is inactive: 1.11.
Regarding `CCCCCCCCCCCCCCCCCCOC[C@H](COP(=O)(O)O[C@H]1[C@@H](O)[C@@H](O)[C@@H](O)C[C@@H]1OC)OC`, the relative growth is inactive: 0.807.
Regarding `C[C@H](CO)N1C[C@H](C)[C@H](CN(C)CC2CCCCC2)Oc2ccc(NC(=O)CCCCCC(=O)Nc3ccccc3N)cc2CC1=O`, the relative growth is inactive: 0.978.
`C[C@@H]1CN([C@@H](C)CO)C(=O)c2cc(NC(=O)Nc3ccc4c(c3)OCO4)ccc2O[C@@H](C)CCCCO[C@H]1CN(C)C(=O)C1CCCCC1`: the relative growth was inactive: 0.965.
